According to PubChem BioAssay AID1347073 (National Center for Advancing Translational Sciences (NCATS), 2019):
The whole screen tested about 45,000 compounds, of which about 200 (0.44%) were called active. Not shown: some 7% with an inconclusive outcome. Calls come from the whole dose curve; as a rule, active = well fitted activation curve with a large enough effect; inconclusive = small, poorly fitted or top-dose-only effect; inactive = no such curve, though single readings can be large or run the other way. Some of the results follow.

assay: qHTS of TDP-43 Inhibitors: NCGC Sytravon Library Screen; conditions: yeast TDP-43 toxicity rescue, BacTiter-Glo growth, 24 h; series mostly up to 46.1 µM; growth rescue (activation): at the top concentration; note: nearly all actives have a fitted effect of over 55% in size; for growth rescue (activation): 0% is about no effect
How it was run: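 TDP-43-expressing yeast, pregrown in raffinose, seeded at OD600 0.02 in galactose medium with compound for 24 hr at 30 deg C. Growth read by BacTiter-Glo luminescence, so rescue of toxicity appears as activation.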
Potency is the fitted concentration of half-maximal effect.

| Compound | growth rescue (activation) | Potency |
| --- | --- | --- |
| CCOC(=O)C(OC(=O)c1sc(=S)n(C)c1C)C(C)=O (stereo unspecified) | inactive: -4.54% | – |
| Cc1ccc(C)c(NC(=O)CN(C)C(=O)Cc2ccc(Cl)cc2Cl)c1 | inactive: 10.1% | – |
| Cc1nnc(-c2ccc(Cl)cc2)[nH]c1=O | inactive: -8.67% | – |
| O=C(NC1CCC(O)CC1)c1ccc(Br)o1 (stereo unspecified) | inactive: 1.93% | – |
| CC(=O)Cc1nsc(NC(=O)c2ccc(-c3ccccc3Cl)o2)n1 | inactive: 35.9% | – |
| C=CCOc1ccc(/C=C/C(=O)OCC(=O)N2CCN(C(C)=O)CC2)cc1 | inactive: -10.7% | – |
| Cc1c(C(=O)Nc2nc3ccccc3[nH]2)cccc1[N+](=O)[O-] | inactive: -4.8% | – |
| CC1=C(C(=O)N2CCOCC2)C(c2c(F)cccc2F)NC(=O)N1 (stereo unspecified) | inactive: -0.617% | – |
| CC(C)OC(=O)Cn1nc(C(F)(F)F)c2c1CCCC2 | inactive: -0.82% | – |
| O=C(NC(=S)NNS(=O)(=O)c1ccccc1)c1ccccc1[N+](=O)[O-] | inactive: 23.9% | – |
| COc1cc(/C=C2\SC(=Nc3ccc(O)cc3)NC2=O)cc(OC)c1OC | inactive: -14% | – |
| Cc1ncc([N+](=O)[O-])n1CC(=O)Nc1ccc(F)c(F)c1 | inactive: -2.23% | – |
| CCOC(=O)C1(Cc2ccc(Cl)cc2)CCN(CCCn2cccn2)CC1 | inactive: 8.81% | – |
| Cc1ccc(SCC(=O)NN=C2CCN(C)CC2)cc1 | inactive: 7.3% | – |
| Cc1ccc(S(=O)(=O)NN2C(=O)/C(=C/c3ccccn3)SC2=S)cc1 | inactive: 8.81% | – |
| COc1ccc(-c2noc(-c3ccccc3C(=O)NCC3CCCO3)n2)cc1 (stereo unspecified) | inactive: -10.5% | – |
| Cc1cc(NC(=O)Cn2nc([N+](=O)[O-])c(Br)c2C)no1 | inactive: -2.7% | – |
| Cc1nc2nc(C)c(NS(=O)(=O)c3ccc(Cl)cc3)c(=O)n2[nH]1 | inactive: 16.2% | – |
| CCOc1c(Cl)cc(CNCc2ccncc2)cc1OC | inactive: 11.5% | – |
| CCOc1ccc(S(=O)(=O)N2CCC(C(=O)N3CCCC3)CC2)cc1C | inactive: -20.7% | – |
| O=C(Nc1ccc(Br)cc1Cl)c1ccc(OCC2CCCO2)cc1 (stereo unspecified) | inactive: 3.77% | – |
| COc1ccc(C(=O)O/N=C(\N)c2ccccn2)cc1 | inactive: -20.1% | – |

| Compound | growth rescue (activation) | Potency |
| --- | --- | --- |
| CN(C)S(=O)(=O)c1cc(C(=O)NCc2ccccc2)c(Cl)cc1Cl | inactive: 1.49% | – |
| N=c1n(Cc2ccc(Cl)cc2)c2ccccc2n1CC(O)COc1ccccc1 (stereo unspecified) | inactive: 11.4% | – |
| Cc1ccnc(N2CCC(C(=O)NNC(=O)COc3cccc4ccccc34)CC2)n1 | inactive: -4.06% | – |
| CC(=O)Nc1cccc(-c2nn[nH]n2)c1 | inactive: 14.2% | – |
| CCOc1ccc(C(=O)NCCc2cnc[nH]2)cc1 | inactive: 12.8% | – |
| Cc1cc2nc3c(=O)n(CCc4ccccc4)c(=O)[nH]c3nc2cc1N | inactive: -4.7% | – |
| Cn1nnnc1SCCNC(=O)C1CCC(=O)N(Cc2ccc(Cl)cc2)C1 (stereo unspecified) | inactive: -23% | – |
| COc1ccc(NC(=O)CS(=O)CC(=O)Nc2ccc(-n3cnnn3)c(C)c2)cc1 (stereo unspecified) | inactive: 10.9% | – |
| CCOC(=O)c1ccc2nc(CCC(=O)N[C@H](C(=O)OC)C(C)C)c(=O)n(CC)c2c1 | inactive: 12.1% | – |
| CSc1ccccc1C(=O)OCC(=O)N1CCCCCC1 | inactive: -9.16% | – |
| CC(=O)Nc1ccc(/C=N/NC(=O)CCN2CCN(c3ccccc3)CC2)cc1 | inactive: 2.57% | – |
| CCOc1ccc(NC(=O)CNC(=O)Cc2ccccc2)cc1 | inactive: -7.77% | – |
| CC(=O)Cn1nnc2sc(-c3ccccc3)cc2c1=O | inactive: 12.1% | – |
| CCCCCCNC(=O)CCNS(=O)(=O)c1ccc(C)cc1 | inactive: 3.63% | – |
| CCOC(=O)C1=C(C)N(C)C(=O)NC1c1c(O)ccc2ccccc12 (stereo unspecified) | inactive: 5.66% | – |
| Cc1cc(=O)[nH]c(SCC(=O)O)c1C#N | inactive: 11.7% | – |
| CS(=O)(=O)N1CCC(C(=O)NNC(=O)Nc2ccc(F)c(Cl)c2)CC1 | inactive: -25.4% | – |
| Cc1ccc(OC(C)C(=O)N2CCN(c3ccccn3)CC2)cc1 (stereo unspecified) | inactive: 6.05% | – |
| CSc1ccccc1C(=O)C1CCCN(C(=O)c2ccc(N3CCOCC3)cc2)C1 (stereo unspecified) | inactive: 7.97% | – |
| COc1cc(/C=N/NC(=O)c2cccc(NC(=O)c3ccccc3)c2)ccc1O | inactive: 13.3% | – |
| FC(F)(F)c1cnc(Oc2ccccc2-c2nnc(-c3ccc(Cl)cc3)o2)c(Cl)c1 | inactive: 7.26% | – |
| CC(C)n1cc(CN2CCCC(C(=O)Nc3cccc(-c4cc5ccccc5[nH]4)c3)C2)cn1 (stereo unspecified) | inactive: -29.4% | – |

| Compound | growth rescue (activation) | Potency |
| --- | --- | --- |
| CCOc1cc(CNCCN2CCOCC2)ccc1OCc1ccccc1Cl | inactive: 19.4% | – |
| COc1ccc(C(=O)NNC2=NS(=O)(=O)c3ccccc32)cc1OC | inactive: 2.88% | – |
| CS(=O)(=O)c1ccccc1C(=O)Nc1nc2ccccc2[nH]1 | inactive: -9.07% | – |
| COc1ccc(-n2cnnc2SCC(=O)N2CCN(c3ccccc3)CC2)cc1 | inactive: -33.4% | – |
| Cc1cccc2c(C(=O)n3cccn3)cc(-c3ccccc3Cl)nc12 | inactive: 17.3% | – |
| CCC(=O)Nc1ccc(Cl)c(NC(=S)NC(C)=O)c1 | inactive: 10.7% | – |
| O=C(COC(=O)c1cc([N+](=O)[O-])ccc1NCCO)Nc1cccnc1Cl | inactive: 11.1% | – |
| CCN(CC)CCNC(=O)Cn1cnc2sc(C)c(S(=O)(=O)N3CCN(c4ccccc4OC)CC3)c2c1=O | inactive: -2.27% | – |
| COc1ccc(CCNC(=O)COC(=O)Cc2ccccc2F)cc1 | inactive: 8.3% | – |
| CCCN(CC(=O)Nc1ccccc1Br)CC(=O)Nc1ccc(F)c(F)c1F | – | active: 11.2 µM |
| N#C/C(=C(/O)c1ccc2c(c1)OCO2)c1nc2cc(C(F)(F)F)ccc2s1 | inactive: -5.55% | – |
| Cc1c(C)c2c(OCC(=O)NCC(=O)NCC(=O)O)cc3c(c2oc1=O)CCC(C)(C)O3 | inactive: -1.59% | – |
| O=C(Nc1ccc(Oc2ccccc2)nc1)C1CCN(Cc2cccc(F)c2)CC1 | inactive: -18% | – |
| COCCN(C(=O)CCC(=O)Nc1ccccn1)C(C(=O)NCCC(C)C)c1ccc(F)cc1 (stereo unspecified) | inactive: 0.574% | – |
| CCOC(=O)Cn1c(=O)n(Cc2ccc(OC)cc2)c(=O)c2cccnc21 | inactive: 20% | – |
| CCNS(=O)(=O)c1ccc(NC(=O)c2ccc(Cn3cc([N+](=O)[O-])cn3)o2)cc1 | inactive: 12.3% | – |
| Cc1cccc(N(CC(=O)Nc2ccc(CC#N)cc2)S(C)(=O)=O)c1 | inactive: 27.4% | – |
| c1ccc(CSc2nc3ccccc3[nH]2)cc1 | inactive: 14.8% | – |
| COc1cccc(C2C(C(=O)OC(C)C)=C(C)N=c3s/c(=C\c4ccc(C(=O)O)cc4)c(=O)n32)c1 (stereo unspecified) | inactive: -19% | – |
| C/C(N)=C(/C#N)C(=O)CSc1nncn1-c1ccccc1 | inactive: 25.2% | – |
| COc1ccc(NC(=O)c2cc(-c3ccncc3)nc3ccccc23)c(OC)c1 | inactive: 3.67% | – |
| CC(CN(C)Cc1ccccc1)OC(=O)c1ccc(F)cc1 (stereo unspecified) | inactive: 7.34% | – |

| Compound | growth rescue (activation) | Potency |
| --- | --- | --- |
| O=C(COc1ncnc2ccccc12)Nc1ccc(Cl)c([N+](=O)[O-])c1 | inactive: 3.43% | – |
| CC(=O)[C@@H]1[C@@H](C(=O)c2ccc(C)cc2)[C@]2(C(=O)Nc3ccccc32)[C@H]2C=Cc3cc(F)ccc3N12 | inactive: -10.4% | – |
| COC(=O)C1CCN(c2cnccn2)CC1 | inactive: 3.55% | – |
| O=C(NC1CCCC1)C(c1ccc(Cl)cc1)N(C(=O)c1csnn1)C1CC1 (stereo unspecified) | inactive: 1.42% | – |
| COc1ccccc1NC(=O)CC1C(=O)Nc2c1c(=O)n(C)c(=O)n2C (stereo unspecified) | inactive: -3.1% | – |
| O=C(COc1ccccc1F)NNC(=O)c1ccc(F)c(S(=O)(=O)N2CCOCC2)c1 | inactive: 13% | – |
| O=C(N=Nc1c(O)[nH]c2ccccc12)c1cc(-c2cccs2)[nH]n1 | inactive: 14.6% | – |
| COc1ccc(-c2nnc(SCC(=O)c3cccs3)n2-c2ccc(Cl)cc2)cc1 | inactive: 2.88% | – |
| O=C(NCc1ccccc1)NC1CCS(=O)(=O)C1 (stereo unspecified) | inactive: 1.59% | – |
| CC1=NN(C(=O)c2cccnc2)C(O)(C(F)(F)F)C1 (stereo unspecified) | inactive: 0.199% | – |
| CC(C(=O)Nc1ccc(Cl)cc1)N1C(=O)NC2(CCCC2)C1=O (stereo unspecified) | inactive: 13.4% | – |
| Cc1c(F)cccc1NS(=O)(=O)c1ccc2c(c1)NC(=O)CO2 | inactive: 4.72% | – |
| CC1=C(C(=O)Nc2ccccn2)C(c2ccc3c(c2)OCO3)C2=C(CC(C)(C)CC2=O)N1 (stereo unspecified) | inactive: 12.2% | – |
| N#C/C(=C\c1ccccc1)C(=O)Nc1ccccn1 | inactive: 6.59% | – |
| C=CCOc1ccc(CN(C)C(=O)C2CCCO2)cc1 (stereo unspecified) | inactive: -5.17% | – |
| COCC(C)NCc1cccc2ccccc12 (stereo unspecified) | inactive: -6.1% | – |
| Cc1cc(NC(=O)CSc2nc3[nH]c(=O)cc(O)c3s2)ccc1Br | inactive: 18.2% | – |
| Cc1ccc(NC(=O)Cc2ccc(-n3cccc3)cc2)c(C)c1 | inactive: 8.55% | – |
| COc1cccc(-c2cc(NC(C)=O)c3ncc(-c4cccc(C(C)=O)c4)n3c2)c1 | inactive: 28.8% | – |
| OCCCNc1ncnc2c1ncn2[C@H]1CN(Cc2cccs2)C[C@@H](CO)O1 | inactive: 4.02% | – |
| COc1ccccc1NS(=O)(=O)c1cc(NC(=O)CNC(=O)c2ccccc2)ccc1C | inactive: -8.6% | – |
| CCN(CC)S(=O)(=O)c1ccc(OC)c(NC(=O)CSc2cc(C)ccc2C)c1 | inactive: 13.7% | – |

| Compound | growth rescue (activation) | Potency |
| --- | --- | --- |
| CCOC(=O)c1ccccc1NC(=O)c1cn(-c2ccc(OC)cc2)c(=O)c2ccccc12 | inactive: 17.6% | – |
| Cc1c(N=Cc2nc3ccccc3[nH]2)c(=O)n(-c2ccccc2)n1C | inactive: -19.7% | – |
| Cc1[nH]n(-c2ccccc2)c(=O)c1C=Nc1cccc(F)c1 | inactive: 8.72% | – |
| CCN1CCCC1CNC(=O)CCc1nnc(CCC2CCCCC2)o1 (stereo unspecified) | inactive: 4.32% | – |
| Cc1ccc(NC(=O)CSc2sc3c(O)cc(=O)[nH]c3c2C#N)cc1C | inactive: 23.9% | – |
| CC1(C(=O)OCc2cc(=O)n3cc(Br)ccc3n2)CC1(Cl)Cl (stereo unspecified) | inactive: 28.8% | – |
| C#CC(CC)(CC)NC(=O)c1cc(S(=O)(=O)N2CCCCC2)ccc1N1CCOCC1 | inactive: 14.9% | – |
| Cc1cccc(C(=O)NNC(=O)CCn2nnc3ccccc32)c1 | inactive: -13.9% | – |
| COc1ccc(C(=O)NC(=S)NCCc2ccccc2)cc1 | inactive: 9.62% | – |
| COc1cc(OC)cc(C(=O)Nc2ccc(NC(=O)c3ccco3)c(C)c2)c1 | inactive: -8.37% | – |
| COc1ccc(/C=C(\NC(=O)c2ccccc2)C(=O)NCc2cccnc2)cc1 | inactive: 12.6% | – |
| COc1ccc(NC(=O)C2CC(=O)N(c3ccccc3Cl)C2)c(OC)c1 (stereo unspecified) | inactive: -13.1% | – |
| Nc1ccc(C(=O)OCC(=O)Nc2cccc(S(=O)(=O)NC3=NCCCCC3)c2)cc1[N+](=O)[O-] | inactive: 23% | – |
| COc1ccc(NC(=O)c2ccc3c(c2)C(=O)N(CC2CCCO2)C3=O)c(OC)c1 (stereo unspecified) | inactive: -1.5% | – |
| CCN(CC)S(=O)(=O)c1ccc2c(c1)N(CC(=O)Nc1cccc(C(C)=O)c1)C(=O)CO2 | inactive: 2.42% | – |
| O=C(NCCCl)Nc1cc([N+](=O)[O-])ccc1Cl | inactive: 24.3% | – |
| COc1ccc(-c2nnc(SCC(=O)NC3CCCc4ccccc43)n2N)cc1 (stereo unspecified) | inactive: 12.5% | – |
| CCCNC(=S)Nc1ccc(Cl)cc1C | inactive: 21.3% | – |
